# Measured values taken from PubChem BioAssay AID588591 (National Center for Advancing Translational Sciences (NCATS), 2011).
# Screen size: about 390,000 compounds; about 4,700 (1.2%) were called active. This list was built around the results that the source calls inconclusive (neither active nor inactive); the mix of calls is not that of the screen. Calls come from the whole dose curve; as a rule, active = well fitted inhibition curve with a large enough effect; inconclusive = small, poorly fitted or top-dose-only effect, or another doubt; inactive = no such curve, though single readings can be large or run the other way. Potencies of inconclusive entries are doubtful fits and often do not repeat.
# Biological target: DNA polymerase eta (Homo sapiens) (UniProt Q9Y253)
# Sequence of UniProt Q9Y253 (Q9Y253 whole entry, looked up): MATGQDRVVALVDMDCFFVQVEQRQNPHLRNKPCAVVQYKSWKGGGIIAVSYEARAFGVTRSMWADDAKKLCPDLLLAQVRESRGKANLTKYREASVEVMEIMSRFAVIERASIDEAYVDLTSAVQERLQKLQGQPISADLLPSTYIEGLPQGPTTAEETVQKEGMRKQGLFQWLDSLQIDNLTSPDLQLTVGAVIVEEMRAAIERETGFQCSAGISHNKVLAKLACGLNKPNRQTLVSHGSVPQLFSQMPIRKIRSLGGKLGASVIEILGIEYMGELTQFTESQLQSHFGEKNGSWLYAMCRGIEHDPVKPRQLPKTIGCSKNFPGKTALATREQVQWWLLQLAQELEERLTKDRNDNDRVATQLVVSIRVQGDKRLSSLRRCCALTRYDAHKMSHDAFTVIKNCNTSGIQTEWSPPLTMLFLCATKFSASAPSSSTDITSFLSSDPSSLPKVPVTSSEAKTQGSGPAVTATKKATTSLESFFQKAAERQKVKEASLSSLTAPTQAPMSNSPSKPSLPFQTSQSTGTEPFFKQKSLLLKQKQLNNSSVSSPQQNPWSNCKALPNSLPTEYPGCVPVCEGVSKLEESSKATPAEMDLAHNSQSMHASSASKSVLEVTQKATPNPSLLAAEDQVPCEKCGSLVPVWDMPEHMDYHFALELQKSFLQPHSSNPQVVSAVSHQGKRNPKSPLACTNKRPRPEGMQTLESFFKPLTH
# Test: qHTS for Inhibitors of Polymerase Eta
# Settings: recombinant Pol eta, fluorescent DNA replication assay; series mostly up to 114 µM
# Procedure, shortened: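 Pol eta (10 nM) was preincubated with compounds for 15 min at room temperature, after which fluorescent replication substrate (50 nM final) was added to start the reaction. Fluorescence was read kinetically at 0 and 10 min.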
# Potency is the fitted concentration of half-maximal effect; tags give direction and shape of the fitted curve.
row,SMILES,Potency
1,COc1cc(/C=C2\C(=O)NC(=O)N(c3ccccc3)C2=O)cc(OC)c1O,inactive
2,CC(=O)N1CCN(c2ccc(N=Cc3c(O)n(Cc4ccccc4)c(=O)[nH]c3=O)cc2)CC1,"inconclusive: 39.8 µM [inhibitor, single point]"
3,CCOc1cc(/C=C2/C(=O)NC(=O)N(c3ccc(CC)cc3)C2=O)ccc1OC(=O)c1cccs1,active: 44.7 µM
4,O=C(Nc1ccc(Cl)cc1C(=O)c1ccccc1)c1ccc(Br)o1,"inconclusive: 39.8 µM [inhibitor, single point]"
5,N#CC1=C(N)Oc2c(c(=O)sc3ccccc23)C1c1cccnc1 (configuration not stated),inactive
6,O=C1NC(=S)NC(=O)C1=Cc1ccc2c(c1)CCN2CCCCl,active: 2 µM
7,CCOc1cc2c(cc1OCC)-n1cccc1C(c1cccc(F)c1)NC2 (configuration not stated),"inconclusive: 89.1 µM [inhibitor, partial curve, poor fit]"
8,O=c1c2ccccc2nc(CSc2ncnc3nc[nH]c23)n1-c1ccccc1Cl,inactive
9,Cc1ccccc1N1C(=O)NC(=O)/C(=C\c2ccc3c(c2)CCCN3Cc2ccccc2)C1=O,active: 20 µM
10,COc1ccccc1N1CCN(CCc2c[nH]c3cc4c(cc23)OCO4)CC1,"inconclusive: 50.1 µM [inhibitor, partial curve, poor fit]"
11,O=c1c2ccccc2nc(/C=C/c2cccnc2)n1Cc1ccccc1,"inconclusive: 89.1 µM [inhibitor, single point]"
12,COc1ccc(-n2c(O)c(/C=C3\C=Nc4ccc(Br)cc43)c(=O)[nH]c2=O)c(OC)c1,active: 79.4 µM
13,CC(C)N1C(=O)/C(=C/C=C/c2ccco2)C(=O)N(Cc2ccco2)C1=O,active: 2.51 µM
14,c1cc2c(cc1C1OCC3C(c4ccc5c(c4)OCO5)OCC13)OCO2 (configuration not stated),inactive
15,CCOc1ccc(C2SCC(=O)Nc3c2c(=O)[nH]n3C2CCCCCC2)cc1 (configuration not stated),"inconclusive: 39.8 µM [inhibitor, partial curve, poor fit]"
16,COc1ccc(C(Nc2cccc([N+](=O)[O-])c2)P(=O)(OC(C)C)OC(C)C)cc1 (configuration not stated),"inconclusive: 100 µM [inhibitor, partial curve, poor fit]"
17,COc1ccc(OC)c(N2C(=O)/C(=C/c3ccco3)C(=O)NC2=S)c1,active: 0.708 µM
18,FC(F)(F)c1ccccc1NC1=NCCCS1,"inconclusive: 89.1 µM [inhibitor, partial curve, poor fit]"
19,CCCCCCn1c(N)c(C(=O)NCCN2CCOCC2)c2nc3ccccc3nc21,"inconclusive: 56.2 µM [inhibitor, partial curve]"
20,CC(C)(C)N1C(=O)NC(=O)/C(=C\c2ccc3c(c2)CCN3CCCCl)C1=O,"inconclusive: 79.4 µM [inhibitor, partial curve]"
21,Nc1ccc2c3c(cccc13)-c1ccccc1-2,"inconclusive: 50.1 µM [inhibitor, partial curve, poor fit]"
22,O=C1CCC2(O)C3Cc4ccc(O)c5c4C2(CCN3Cc2ccoc2)C1O5 (configuration not stated),active: 28.2 µM
23,Oc1ccccc1O,"inconclusive: 31.6 µM [inhibitor, single point]"

row,SMILES,Potency
1,CCOc1cc(C=C2C(=O)NC(=S)NC2=O)ccc1O,inactive
2,COc1ccc(Nc2c(-c3cc(Br)ccc3O)nc3ncccn23)cc1OC,"inconclusive: 100 µM [inhibitor, partial curve, poor fit]"
3,O=[N+]([O-])c1ccc(N(CCO)CCO)c2c1no[n+]2[O-],active: 28.2 µM
4,CN(C)C(=O)Oc1ccc(Br)cc1C(=O)Nc1ccc(F)c(Cl)c1,inactive
5,Cn1cc(/C=C2\C(=O)NC(=O)N(c3ccccc3)C2=O)c2ccccc21,active: 25.1 µM
6,O=C(N/N=C/C1C(=O)NC(=S)N(c2ccccc2)C1=O)c1cc(Br)c(O)c(Br)c1 (configuration not stated),"inconclusive: 70.8 µM [inhibitor, single point]"
7,O=C(O)Cn1cc(/C=C2\C(=O)NC(=O)N(c3ccc(Br)cc3)C2=O)c2ccccc21,"inconclusive: 56.2 µM [inhibitor, partial curve, poor fit]"
8,O=c1[nH]c(=O)n(CCC2=CCCCC2)c(O)c1/C=N/Nc1cccc2ccccc12,"inconclusive: 31.6 µM [inhibitor, partial curve, poor fit]"
9,CC(=O)O[C@@]12CO[C@@H]1C[C@H](O)[C@@]1(C)C(=O)[C@H](O)C3=C(C)[C@@H](O)C[C@@](O)([C@@H](OC(=O)c4ccccc4)C12)C3(C)C (some centres not stated),"inconclusive: 100 µM [inhibitor, partial curve, poor fit]"
10,COC(=O)c1ccc(N=C(c2ccccc2)c2c(O)n(C)c(=O)n(C)c2=O)cc1,inactive
11,COc1ccc(Cc2nccc3cc(OC)c(OC)cc23)cc1OC,"inconclusive: 2.24 µM [inhibitor, full curve, poor fit]"
12,CN1/C(=C\C=C2C(=O)NC(=S)NC2=O)C(C)(C)c2ccccc21,active: 79.4 µM
13,O=C(c1cccc(Cl)c1)C1CCCN(Cc2cccc3cnccc23)C1 (configuration not stated),"inconclusive: 89.1 µM [inhibitor, partial curve]"
14,NNC(N)=O,"inconclusive: 89.1 µM [inhibitor, partial curve, poor fit]"
15,CCc1ccc(N2C(=O)NC(=O)/C(=C/c3cccn3CCOc3ccc(C)cc3)C2=O)cc1,"inconclusive: 89.1 µM [inhibitor, single point]"
16,O=c1[nH]c(=S)n(CCC2=CCCCC2)c(O)c1C=NCCCn1ccnc1,"inconclusive: 14.1 µM [inhibitor, partial curve]"
17,CC(C)C(OC(=O)c1ccco1)C(=O)NCc1ccco1 (configuration not stated),"inconclusive: 89.1 µM [inhibitor, single point]"
18,COc1ccc(/C=C/C=C2C(=O)NC(=S)NC2=O)cc1,active: 25.1 µM
19,CCc1ccc(N2C(=O)NC(=O)/C(=C\c3cc(C)n(-c4cc(C(=O)O)cc(C(=O)O)c4)c3C)C2=O)cc1,active: 14.1 µM
20,Cc1cc(C=C2C(=O)N(C)C(=S)N(C)C2=O)c(C)n1C1CCCCC1,active: 14.1 µM
21,COc1cc2c(cc1OC)[C@@]13CCN4CC5=CCO[C@H]6CC(=O)N2[C@H]1[C@H]6[C@H]5C[C@H]43,inactive
22,CCOC(=O)c1c(NS(=O)(=O)c2ccccc2)n(CCCOC)c2nc3ccccc3nc12,"inconclusive: 56.2 µM [inhibitor, partial curve, poor fit]"
23,O=C1NC(=O)N(c2ccccc2F)C(=O)/C1=C/c1ccc(Sc2nc3ccccc3[nH]2)o1,active: 20 µM

row,SMILES,Potency
1,Cc1ccccc1-n1c(O)c(/C=N/Nc2nc3c(c(=O)n(C)c(=O)n3C)n2C)c(=O)[nH]c1=S,"inconclusive: 17.8 µM [inhibitor, full curve, poor fit]"
2,O=C1NC(=O)N(c2ccc3c(c2)OCO3)C(=O)/C1=C/c1ccc(N2CCCC2)o1,"inconclusive: 5.01 µM [inhibitor, partial curve, poor fit]"
3,CC[C@@H](CO)NC(=O)[C@H]1C=C2c3cccc4c3c(cn4C)C[C@H]2N(C)C1,"inconclusive: 8.91 µM [inhibitor, partial curve]"
4,CCC(C)N1C(=O)/C(=C/c2ccc3c(c2)CCN3CCCCl)C(=O)NC1=S (configuration not stated),active: 15.8 µM
5,COc1ccccc1NC(=O)COC(=O)c1cn(C)c2ccccc12,inactive
6,O=C1NC(=O)N(c2ccccc2)C(=O)/C1=C/c1ccoc1,active: 28.2 µM
7,COc1ccc(Cn2c(O)c(/C=N/NC(=O)c3ccccc3O)c(=O)[nH]c2=O)cc1,"inconclusive: 89.1 µM [inhibitor, partial curve, poor fit]"
8,NC(=O)c1cn(C2OC(CO)C(O)C2O)c2ncnc(N)c12 (configuration not stated),inactive
9,Cn1c(O)c(/C=C2\C=c3ccccc3=NC2=O)c(=O)n(C)c1=O,inactive
10,CN1CN(c2ccccc2)C2(CCN(CCCSc3ccccc3NC(=O)/C=C/c3ccccc3)CC2)C1=O,"inconclusive: 56.2 µM [inhibitor, partial curve, poor fit]"
11,O=[N+]([O-])NC1=NCN(Cc2ccco2)CN1Cc1ccco1,"inconclusive: 89.1 µM [inhibitor, partial curve, poor fit]"
12,CC/C(=N\N1CCCCCC1)c1c(O)n(-c2ccccc2C)c(=O)[nH]c1=O,"inconclusive: 79.4 µM [inhibitor, partial curve, poor fit]"
13,O=C(NN=Cc1ccc(N(CCCl)CCCl)cc1)c1cccc([N+](=O)[O-])c1,"inconclusive: 12.6 µM [inhibitor, partial curve, poor fit]"
14,COc1ccc(NP(=O)(Nc2ccc(OC)cc2)Oc2ccccc2)cc1,"inconclusive: 79.4 µM [inhibitor, partial curve, poor fit]"
15,O=C1NC(=S)N(c2ccccc2)C(=O)/C1=C/c1ccco1,active: 0.794 µM
16,Cc1cccc(N2C(=O)CC(=O)NC2=O)c1,inactive
17,CC1CC(OP(O)(=S)c2ccc(N(C)C)cc2NC(=O)c2cccs2)CC(C)(C)C1 (configuration not stated),"inconclusive: 89.1 µM [inhibitor, partial curve, poor fit]"
18,CCN(CC)c1ccc(/C=C/[N+](=O)[O-])cc1,inactive
19,Cc1ccc(CCNC(=O)Cn2nc(C)c3c(C)n(-c4ccc(C)cc4)nc3c2=O)cc1,"inconclusive: 100 µM [inhibitor, partial curve, poor fit]"
20,O=C(O)CCn1cc(C=C2C(=O)NC(=S)NC2=O)c(-c2cc3ccccc3oc2=O)n1,active: 20 µM
21,O=c1[nH]c(=O)n(Cc2ccco2)c(O)c1C=NCc1cccs1,"inconclusive: 89.1 µM [inhibitor, partial curve, poor fit]"
